{"source": "the supplement of paper PMC8728848", "test_in_all_cases": "glycan array binding signal (z-score within array); higher = stronger binding", "settings_in_all_cases": "glycan notation: IUPAC condensed, linker removed; mutation: N288D, K313I", "key": {"[1]": {"molecular_target": "GlcNAc(a1-6)Gal(b1-4)GlcNAc", "method_in_brief": "(§1)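 The Consortium for Functional Glycomics database supplied 3228 glycan arrays, of which those lacking an available protein sequence were dropped. The binding signal, a within-array Z-score, was averaged across arrays of the same protein sequence and across linkers. Negative scores can be read as non-binding.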"}, "[2]": {"molecular_target": "GlcNAc(b1-2)Gal(b1-3)GalNAc", "method_in_brief": "as §1"}, "[3]": {"molecular_target": "GlcNAc(b1-2)Man(a1-3)[GlcNAc(b1-2)Man(a1-6)]Man(b1-4)GlcNAc(b1-4)GlcNAc", "method_in_brief": "as §1"}, "[4]": {"molecular_target": "GlcNAc(b1-2)Man(a1-3)[GlcNAc(b1-2)Man(a1-6)]Man(b1-4)GlcNAc(b1-4)[Fuc(a1-6)]GlcNAc", "method_in_brief": "as §1"}, "[5]": {"molecular_target": "GlcNAc(b1-2)Man(a1-3)[GlcNAc(b1-4)][GlcNAc(b1-2)Man(a1-6)]Man(b1-4)GlcNAc(b1-4)GlcNAc", "method_in_brief": "as §1"}, "[6]": {"molecular_target": "GlcNAc(b1-2)Man(a1-3)[GlcNAc(b1-4)][GlcNAc(b1-2)Man(a1-6)]Man(b1-4)GlcNAc(b1-4)[Fuc(a1-6)]GlcNAc", "method_in_brief": "as §1"}, "[7]": {"molecular_target": "GlcNAc(b1-2)[GlcNAc(b1-4)]Man(a1-3)[GlcNAc(b1-2)Man(a1-6)]Man(b1-4)GlcNAc(b1-4)GlcNAc", "method_in_brief": "as §1"}, "[8]": {"molecular_target": "GlcNAc(b1-2)[GlcNAc(b1-4)]Man(a1-3)[GlcNAc(b1-4)][GlcNAc(b1-2)Man(a1-6)]Man(b1-4)GlcNAc(b1-4)GlcNAc", "method_in_brief": "as §1"}, "[9]": {"molecular_target": "GlcNAc(b1-2)[GlcNAc(b1-4)]Man(a1-3)[GlcNAc(b1-4)][GlcNAc(b1-2)[GlcNAc(b1-6)]Man(a1-6)]Man(b1-4)GlcNAc(b1-4)GlcNAc", "method_in_brief": "as §1"}, "[10]": {"molecular_target": "GlcNAc(b1-2)[GlcNAc(b1-4)]Man(a1-3)[GlcNAc(b1-4)][GlcNAc(b1-2)[GlcNAc(b1-6)]Man(a1-6)]Man(b1-4)GlcNAc(b1-4)[Fuc(a1-6)]GlcNAc", "method_in_brief": "as §1"}, "[11]": {"molecular_target": "GlcNAc(b1-2)[GlcNAc(b1-6)]Man(a1-6)[GlcNAc(b1-2)Man(a1-3)]Man(b1-4)GlcNAc(b1-4)GlcNAc", "method_in_brief": "as §1"}, "[12]": {"molecular_target": "GlcNAc(b1-2)[GlcNAc(b1-6)]Man(a1-6)[GlcNAc(b1-2)Man(a1-3)]Man(b1-4)GlcNAc(b1-4)[Fuc(a1-6)]GlcNAc", "method_in_brief": "as §1"}, "[13]": {"molecular_target": "GlcNAc(b1-2)[GlcNAc(b1-6)]Man(a1-6)[GlcNAc(b1-4)][GlcNAc(b1-2)Man(a1-3)]Man(b1-4)GlcNAc(b1-4)GlcNAc", "method_in_brief": "as §1"}, "[14]": {"molecular_target": "GlcNAc(b1-3)Fuc", "method_in_brief": "as §1"}, "[15]": {"molecular_target": "GlcNAc(b1-3)Gal", "method_in_brief": "as §1"}, "[16]": {"molecular_target": "GlcNAc(b1-3)Gal(b1-3)GalNAc", "method_in_brief": "as §1"}, "[17]": {"molecular_target": "GlcNAc(b1-3)Gal(b1-4)Glc", "method_in_brief": "as §1"}, "[18]": {"molecular_target": "GlcNAc(b1-3)Gal(b1-4)GlcNAc", "method_in_brief": "as §1"}, "[19]": {"molecular_target": "GlcNAc(b1-3)Gal(b1-4)GlcNAc(b1-2)Man(a1-3)[GlcNAc(b1-3)Gal(b1-4)GlcNAc(b1-2)Man(a1-6)]Man(b1-4)GlcNAc(b1-4)GlcNAc", "method_in_brief": "as §1"}, "[20]": {"molecular_target": "GlcNAc(b1-3)Gal(b1-4)GlcNAc(b1-2)Man(a1-3)[GlcNAc(b1-3)Gal(b1-4)GlcNAc(b1-2)Man(a1-6)]Man(b1-4)GlcNAc(b1-4)[Fuc(a1-6)]GlcNAc", "method_in_brief": "as §1"}, "[21]": {"molecular_target": "GlcNAc(b1-3)Gal(b1-4)GlcNAc(b1-2)[GlcNAc(b1-3)Gal(b1-4)GlcNAc(b1-6)]Man(a1-6)[GlcNAc(b1-3)Gal(b1-4)GlcNAc(b1-2)Man(a1-3)]Man(b1-4)GlcNAc(b1-4)GlcNAc", "method_in_brief": "as §1"}, "[22]": {"molecular_target": "GlcNAc(b1-3)Gal(b1-4)GlcNAc(b1-3)Gal(b1-4)GlcNAc", "method_in_brief": "as §1"}, "[23]": {"molecular_target": "GlcNAc(b1-3)Gal(b1-4)GlcNAc(b1-3)Gal(b1-4)GlcNAc(b1-2)Man(a1-3)[GlcNAc(b1-3)Gal(b1-4)GlcNAc(b1-3)Gal(b1-4)GlcNAc(b1-2)Man(a1-6)]Man(b1-4)GlcNAc(b1-4)GlcNAc", "method_in_brief": "as §1"}, "[24]": {"molecular_target": "GlcNAc(b1-3)Gal(b1-4)GlcNAc(b1-3)Gal(b1-4)GlcNAc(b1-2)Man(a1-3)[GlcNAc(b1-3)Gal(b1-4)GlcNAc(b1-3)Gal(b1-4)GlcNAc(b1-2)Man(a1-6)]Man(b1-4)GlcNAc(b1-4)[Fuc(a1-6)]GlcNAc", "method_in_brief": "as §1"}, "[25]": {"molecular_target": "GlcNAc(b1-3)Gal(b1-4)GlcNAc(b1-3)Gal(b1-4)GlcNAc(b1-2)[GlcNAc(b1-3)Gal(b1-4)GlcNAc(b1-3)Gal(b1-4)GlcNAc(b1-6)]Man(a1-6)[GlcNAc(b1-3)Gal(b1-4)GlcNAc(b1-3)Gal(b1-4)GlcNAc(b1-2)Man(a1-3)]Man(b1-4)GlcNAc(b1-4)[Fuc(a1-6)]GlcNAc", "method_in_brief": "as §1"}, "[26]": {"molecular_target": "GlcNAc(b1-3)Gal(b1-4)GlcNAc(b1-3)Gal(b1-4)GlcNAc(b1-3)Gal(b1-4)GlcNAc(b1-2)Man(a1-3)[GlcNAc(b1-3)Gal(b1-4)GlcNAc(b1-3)Gal(b1-4)GlcNAc(b1-3)Gal(b1-4)GlcNAc(b1-2)Man(a1-6)]Man(b1-4)GlcNAc(b1-4)GlcNAc", "method_in_brief": "as §1"}}, "note": "The list shows a part of the results.", "data": [{"binder": "Langerin (Homo sapiens), Q9UJ71 (protein) STLNAQIPELKSDLEKASALNTKIRALQGSLENMSKLLKRQNDILQVVSQGWKYFKGNFYYFSLIPKTWYSAEQFCVSRNSHLTSVTSESEQEFLYKTAGGLIYWIGLTKAGMEGDWSWVDDTPFNKVQSARFWIPGEPNDAGNNEHCGNIKAPSLQAWNDAPCDITFLFICKRPYVPSEP", "values": [{"measurement": "glycan array binding signal (z-score)", "setting": "[1]", "result": -0.229}, {"measurement": "glycan array binding signal (z-score)", "setting": "[2]", "result": 0.319}, {"measurement": "glycan array binding signal (z-score)", "setting": "[3]", "result": -0.132}, {"measurement": "glycan array binding signal (z-score)", "setting": "[4]", "result": 0.186}, {"measurement": "glycan array binding signal (z-score)", "setting": "[5]", "result": -0.253}, {"measurement": "glycan array binding signal (z-score)", "setting": "[6]", "result": 1.18}, {"measurement": "glycan array binding signal (z-score)", "setting": "[7]", "result": 0.028}, {"measurement": "glycan array binding signal (z-score)", "setting": "[8]", "result": 0.175}, {"measurement": "glycan array binding signal (z-score)", "setting": "[9]", "result": -0.027}, {"measurement": "glycan array binding signal (z-score)", "setting": "[10]", "result": 1.91}, {"measurement": "glycan array binding signal (z-score)", "setting": "[11]", "result": -0.239}, {"measurement": "glycan array binding signal (z-score)", "setting": "[12]", "result": 0.347}, {"measurement": "glycan array binding signal (z-score)", "setting": "[13]", "result": 0.046}, {"measurement": "glycan array binding signal (z-score)", "setting": "[14]", "result": -0.188}, {"measurement": "glycan array binding signal (z-score)", "setting": "[15]", "result": -0.083}, {"measurement": "glycan array binding signal (z-score)", "setting": "[16]", "result": -0.036}, {"measurement": "glycan array binding signal (z-score)", "setting": "[17]", "result": -0.073}, {"measurement": "glycan array binding signal (z-score)", "setting": "[18]", "result": 1.72}, {"measurement": "glycan array binding signal (z-score)", "setting": "[19]", "result": -0.225}, {"measurement": "glycan array binding signal (z-score)", "setting": "[20]", "result": 0.063}, {"measurement": "glycan array binding signal (z-score)", "setting": "[21]", "result": 2.14}, {"measurement": "glycan array binding signal (z-score)", "setting": "[22]", "result": -0.116}, {"measurement": "glycan array binding signal (z-score)", "setting": "[23]", "result": 0.764}, {"measurement": "glycan array binding signal (z-score)", "setting": "[24]", "result": 0.439}, {"measurement": "glycan array binding signal (z-score)", "setting": "[25]", "result": 16.7}, {"measurement": "glycan array binding signal (z-score)", "setting": "[26]", "result": 0.059}]}]}
